The supplement of paper PMC8728848
This is one part of the list.

Key:
Test in all cases: glycan array binding signal (z-score within array); higher = stronger binding
Conditions in all cases: glycan notation: IUPAC condensed, linker removed
[1] = target: Neu5Ac(a2-3)Gal(b1-4)[Fuc(a1-3)]GlcNAc(b1-3)GalNAc
Method in brief: (§1)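 From the Consortium for Functional Glycomics database, 3228 arrays were curated, keeping only those whose protein sequence was available. Binding is given as a within-array Z-score averaged across arrays sharing a protein sequence and across linkers. Negative Z-scores can be read as non-binding.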

[2] = target: Neu5Ac(a2-3)Gal(b1-4)[Fuc(a1-3)]GlcNAc(b1-6)[Gal(b1-3)]GalNAc
Method in brief: as §1

[3] = target: Neu5Ac(a2-3)Gal(b1-4)[Fuc(a1-3)]GlcNAc(b1-6)[Neu5Ac(a2-3)Gal(b1-3)]GalNAc
Method in brief: as §1

[4] = target: Neu5Ac(a2-3)Gal(b1-4)[Fuc(a1-3)]GlcNAc6S
Method in brief: as §1

[5] = target: Neu5Ac(a2-3)Gal6S(b1-4)GlcNAc
Method in brief: as §1

[6] = target: Neu5Ac(a2-3)Gal6S(b1-4)[Fuc(a1-3)]GlcNAc
Method in brief: as §1

Neu5Ac(a2-3)GalNAc = target: Neu5Ac(a2-3)GalNAc
Method in brief: as §1

[7] = target: Neu5Ac(a2-3)GalNAc(b1-4)GlcNAc
Method in brief: as §1

[8] = target: Neu5Ac(a2-3)[GalNAc(b1-4)]Gal(b1-4)Glc
Method in brief: as §1

[9] = target: Neu5Ac(a2-3)[GalNAc(b1-4)]Gal(b1-4)GlcNAc
Method in brief: as §1

[10] = target: Neu5Ac(a2-3)[GalNAc(b1-4)]Gal(b1-4)GlcNAc(b1-3)GalNAc
Method in brief: as §1

[11] = target: Neu5Ac(a2-3)[Neu5Ac(a2-6)]GalNAc
Method in brief: as §1

Neu5Ac(a2-6)Gal = target: Neu5Ac(a2-6)Gal
Method in brief: as §1

[12] = target: Neu5Ac(a2-6)Gal(b1-3)GlcNAc(b1-3)[Gal(b1-4)GlcNAc(b1-6)]Gal(b1-4)Glc
Method in brief: as §1

Neu5Ac(a2-6)Gal(b1-4)Glc = target: Neu5Ac(a2-6)Gal(b1-4)Glc
Method in brief: as §1

[13] = target: Neu5Ac(a2-6)Gal(b1-4)GlcNAc
Method in brief: as §1

[14] = target: Neu5Ac(a2-6)Gal(b1-4)GlcNAc(b1-2)Man
Method in brief: as §1

[15] = target: Neu5Ac(a2-6)Gal(b1-4)GlcNAc(b1-2)Man(a1-3)Man(b1-4)GlcNAc(b1-4)GlcNAc
Method in brief: as §1

[16] = target: Neu5Ac(a2-6)Gal(b1-4)GlcNAc(b1-2)Man(a1-3)[Gal(b1-4)GlcNAc(b1-2)Man(a1-6)]Man(b1-4)GlcNAc(b1-4)GlcNAc
Method in brief: as §1

[17] = target: Neu5Ac(a2-6)Gal(b1-4)GlcNAc(b1-2)Man(a1-3)[GlcNAc(b1-2)Man(a1-6)]Man(b1-4)GlcNAc(b1-4)GlcNAc
Method in brief: as §1

[18] = target: Neu5Ac(a2-6)Gal(b1-4)GlcNAc(b1-2)Man(a1-3)[GlcNAc(b1-2)Man(b1-4)GlcNAc(b1-2)Man(a1-6)]Man(b1-4)GlcNAc(b1-4)GlcNAc
Method in brief: as §1

[19] = target: Neu5Ac(a2-6)Gal(b1-4)GlcNAc(b1-2)Man(a1-3)[GlcNAc(b1-4)][Neu5Ac(a2-6)Gal(b1-4)GlcNAc(b1-2)Man(a1-6)]Man(b1-4)GlcNAc(b1-4)GlcNAc
Method in brief: as §1

[20] = target: Neu5Ac(a2-6)Gal(b1-4)GlcNAc(b1-2)Man(a1-3)[Man(a1-6)]Man(b1-4)GlcNAc(b1-4)GlcNAc
Method in brief: as §1

[21] = target: Neu5Ac(a2-6)Gal(b1-4)GlcNAc(b1-2)Man(a1-3)[Neu5Ac(a2-3)Gal(b1-4)GlcNAc(b1-2)Man(a1-6)]Man(b1-4)GlcNAc(b1-4)GlcNAc
Method in brief: as §1

[22] = target: Neu5Ac(a2-6)Gal(b1-4)GlcNAc(b1-2)Man(a1-3)[Neu5Ac(a2-6)Gal(b1-4)GlcNAc(b1-2)Man(a1-6)]Man(b1-4)GlcNAc(b1-4)GlcNAc
Method in brief: as §1

[23] = target: Neu5Ac(a2-6)Gal(b1-4)GlcNAc(b1-2)Man(a1-3)[Neu5Ac(a2-6)Gal(b1-4)GlcNAc(b1-2)Man(a1-6)]Man(b1-4)GlcNAc(b1-4)[Fuc(a1-6)]GlcNAc
Method in brief: as §1

[24] = target: Neu5Ac(a2-6)Gal(b1-4)GlcNAc(b1-2)Man(a1-6)Man(b1-4)GlcNAc(b1-4)GlcNAc
Method in brief: as §1

[25] = target: Neu5Ac(a2-6)Gal(b1-4)GlcNAc(b1-2)Man(a1-6)[Gal(b1-4)GlcNAc(b1-2)Man(a1-3)]Man(b1-4)GlcNAc(b1-4)GlcNAc
Method in brief: as §1

B1: rCNL (Clitocybe nebularis), B2ZRS9 (protein)
chain: SITPGTYNITNVAYTNRLIDLTGSNPAENTLIIGHHLNKTPSGYGNQQWTLVQLPHTTIYTMQAVNPQSYVRVRDDNLVDGAALVGSQQPTPVSIESAGNSGQFRIKIPNLGLALTLPSDANSTPIVLGEVDETSTNQLWAFESVSAV
glycan array binding signal (z-score) [1]: -0.241
glycan array binding signal (z-score) [2]: 0.493
glycan array binding signal (z-score) [3]: -0.273
glycan array binding signal (z-score) [4]: -0.184
glycan array binding signal (z-score) [5]: -0.304
glycan array binding signal (z-score) [6]: -0.309
glycan array binding signal (z-score) (Neu5Ac(a2-3)GalNAc): -0.301
glycan array binding signal (z-score) [7]: -0.322
glycan array binding signal (z-score) [8]: 0.768
glycan array binding signal (z-score) [9]: 0.942
glycan array binding signal (z-score) [10]: 1.09
glycan array binding signal (z-score) [11]: -0.314
glycan array binding signal (z-score) (Neu5Ac(a2-6)Gal): -0.305
glycan array binding signal (z-score) [12]: -0.227
glycan array binding signal (z-score) (Neu5Ac(a2-6)Gal(b1-4)Glc): -0.312
glycan array binding signal (z-score) [13]: -0.3
glycan array binding signal (z-score) [14]: -0.22
glycan array binding signal (z-score) [15]: -0.296
glycan array binding signal (z-score) [16]: -0.226
glycan array binding signal (z-score) [17]: -0.224
glycan array binding signal (z-score) [18]: -0.269
glycan array binding signal (z-score) [19]: -0.23
glycan array binding signal (z-score) [20]: -0.292
glycan array binding signal (z-score) [21]: -0.214
glycan array binding signal (z-score) [22]: -0.24
glycan array binding signal (z-score) [23]: -0.223
glycan array binding signal (z-score) [24]: -0.294
glycan array binding signal (z-score) [25]: 0.182
